The supplement of paper PMC3334620
Over roughly 33,000 sequences, “E-score (-0.5 to 0.5)” has its median near -0.053; the highest 2% begin near 0.37. The list shows a part of the results.

target: Hap1 (UniProt P0CE41); assay: PBM E-score (8-mer binding enrichment) (E-score (-0.5 to 0.5)); higher = stronger / more preferred TF binding; most listed sequences are background and not binding sites; details: protein concentration: 200 nM; construct: GST-DNA-binding domain
Description: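 Universal 'all 10-mer' protein binding microarrays (Agilent AMADID 015681) probed with GST-tagged S. cerevisiae TFs (full-length or DBD) made by in vitro transcription/translation (PURExpress), about 100-200 nM. Bound TF was detected with fluorescent anti-GST. Each ungapped 8-mer (which stands for itself and its reverse complement) is scored by the PBM enrichment score (E-score), a modified Wilcoxon-Mann-Whitney statistic from -0.5 to +0.5, computed with the Universal PBM Analysis Suite. Scale: above 0.35 generally sequence-specific binding.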

UniProt P0CE41, sequence (P0CE41 whole entry, the tested form may be a part): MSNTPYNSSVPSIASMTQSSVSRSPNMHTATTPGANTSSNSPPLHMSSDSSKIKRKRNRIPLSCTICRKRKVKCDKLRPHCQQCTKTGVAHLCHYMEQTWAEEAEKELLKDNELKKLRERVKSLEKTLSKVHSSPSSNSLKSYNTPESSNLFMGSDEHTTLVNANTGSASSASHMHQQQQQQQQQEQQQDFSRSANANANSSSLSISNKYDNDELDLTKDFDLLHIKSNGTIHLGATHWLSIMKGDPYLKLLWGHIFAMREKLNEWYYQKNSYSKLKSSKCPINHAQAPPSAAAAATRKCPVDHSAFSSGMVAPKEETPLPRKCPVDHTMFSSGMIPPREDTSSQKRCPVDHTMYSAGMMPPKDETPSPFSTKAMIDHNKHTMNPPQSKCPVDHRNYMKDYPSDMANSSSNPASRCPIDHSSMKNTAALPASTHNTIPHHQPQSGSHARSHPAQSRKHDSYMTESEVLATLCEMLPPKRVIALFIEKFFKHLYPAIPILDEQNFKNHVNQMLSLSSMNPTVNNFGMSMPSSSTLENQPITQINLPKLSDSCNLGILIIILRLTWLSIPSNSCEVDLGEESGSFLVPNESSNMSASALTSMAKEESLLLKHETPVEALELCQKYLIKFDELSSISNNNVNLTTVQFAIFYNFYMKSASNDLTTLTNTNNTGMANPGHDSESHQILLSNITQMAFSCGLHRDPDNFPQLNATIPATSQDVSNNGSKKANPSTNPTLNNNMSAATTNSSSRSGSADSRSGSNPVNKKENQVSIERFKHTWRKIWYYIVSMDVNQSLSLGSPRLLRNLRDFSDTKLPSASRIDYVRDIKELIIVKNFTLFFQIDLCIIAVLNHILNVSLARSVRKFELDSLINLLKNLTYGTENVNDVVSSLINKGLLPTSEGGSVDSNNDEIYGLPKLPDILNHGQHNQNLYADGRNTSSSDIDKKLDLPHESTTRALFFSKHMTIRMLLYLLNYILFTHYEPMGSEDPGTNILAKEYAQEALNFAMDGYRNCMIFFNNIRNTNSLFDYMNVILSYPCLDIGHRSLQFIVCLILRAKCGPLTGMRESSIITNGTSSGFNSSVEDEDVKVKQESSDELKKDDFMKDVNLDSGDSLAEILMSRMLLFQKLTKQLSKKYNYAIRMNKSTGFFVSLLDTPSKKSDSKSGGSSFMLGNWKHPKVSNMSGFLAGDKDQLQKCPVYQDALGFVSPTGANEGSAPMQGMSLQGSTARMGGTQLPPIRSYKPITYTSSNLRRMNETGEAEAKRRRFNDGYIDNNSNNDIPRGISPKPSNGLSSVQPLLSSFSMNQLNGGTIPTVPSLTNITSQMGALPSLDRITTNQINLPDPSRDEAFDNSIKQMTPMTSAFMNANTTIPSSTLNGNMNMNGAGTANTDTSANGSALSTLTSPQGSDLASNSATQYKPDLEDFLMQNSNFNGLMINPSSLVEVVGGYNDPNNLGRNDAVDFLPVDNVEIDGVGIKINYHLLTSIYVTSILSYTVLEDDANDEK

Sequence	PBM E-score
CGGGTTTC	0.331
AAGCCGTG	0.0593
AGGCCTAC	-0.182
ATATCCTG	-0.0282
CGGTTAAC	0.203
CATCGTTA	-0.23
GACCTCAC	-0.138
TCCCAGCA	0.00066
CATTGTGG	-0.101
ATTCATTA	-0.0445
CGGAAACC	0.314
ACAAATGC	-0.0549
AGAAAACA	-0.132
AAAGGACA	-0.00426
TAGCCGCA	0.0768
GTCATGGA	-0.0988
GTAAAGAC	0.0128
CACTGAGC	-0.201
GTGAGAAC	-0.245
AGCAACCC	-0.111
ATTAATTC	0.282
AGGGATCA	-0.135
CCCTCAAA	-0.116
AACGGGGT	0.188
GAAGCGAA	-0.0351

Sequence	PBM E-score
ATGATTAA	-0.0671
TCACACGA	-0.16
ACAGACTG	-0.256
ACATTCGT	-0.249
AGTATCGG	0.354
GCCCTGAC	-0.328
TACACTGA	-0.183
CACCTATA	-0.24
GACGGTAA	0.213
AGACGTCG	-0.0747
CTCCAATA	0.0121
CAATTAGG	0.0295
ACAAAGGA	0.0364
ATCGGCCG	0.443
ACTCTTAG	-0.289
GATCTCCA	-0.0648
ATCCGCCA	0.181
GATATCGA	0.159
GAACCAAC	-0.096
ACGTTCAT	-0.299
AAGAATCT	-0.116
GACACCCA	-0.113
GGGCCAGA	-0.00391
AGGTCGAT	0.0775
GGCTTCCC	-0.113

Sequence	PBM E-score
GATACGAC	0.03
GAACAGGA	-0.126
AGTGATAC	-0.0775
ATGTCTAA	-0.201
CCTCCACA	-0.199
CAAGTTGC	0.0556
GTGCCTTA	-0.0972
AGTACCTC	-0.216
GTTTAACA	-0.124
CAAACGCC	0.178
CAGACGAC	-0.19
ACGTTAGA	-0.114
AAGTCACA	-0.168
CGCCGTTA	0.291
GGAATGAC	0.00539
GGTTCCCA	-0.121
CCCAACAG	-0.328
ATAACCAC	0.0206
GTCACGAC	-0.118
AAATCAGT	0.0706
ATTGGAGC	-0.137
AGCTGCAA	-0.179
ACCGACTA	0.23
CGATTTGA	-0.143
GACCCCGA	0.285

Sequence	PBM E-score
GGGTGGAC	0.132
GAACTCCC	-0.0134
GGGCCTCA	0.117
GGAGCTTA	0.0466
ACTTTATC	0.0432
GGGATAAC	0.185
AATAGGCT	-0.125
AAGACCCG	0.281
CAAATGCC	0.0155
CCGAGCGA	0.36
CAGCGCCC	-0.14
CTAATTGC	0.145
CCTGTTGC	-0.0461
GTCGGCAA	0.143
GGGTCTCA	0.0324
AAGCCTCA	-0.136
TCTCCTAA	-0.235
GGTTCCAA	0.14
ACAACTAG	0.0211
AACAGCGC	-0.0575
AAACCGTC	0.0507
TACTTCGA	0.0527
ACGTAAAC	-0.112
GGGCTAGA	0.103
AATGCTAT	-0.113

Sequence	PBM E-score
ACTCCTCC	0.062
TCGAAAAA	0.0162
AGGCATGA	-0.262
ACGTTTCC	-0.0406
CGTCCGCA	0.228
GATGATTA	0.0802
CGCTCCAA	0.0517
GTTCTAAA	0.0365
CGGAGTTA	0.494
TCGAGGAA	-0.207
CCCCGAGA	0.319
AACACTTG	-0.141
GCCTACAA	-0.0461
ACTGCACG	-0.0422
CGCTCGTC	-0.118
ATCTTCCC	0.11
CCAAGATC	-0.0337
GTCAATCA	-0.0909
AAATGTCT	-0.0935
AATGAGCC	-0.0744
GCCCGACA	0.255
CGCGTCCG	0.242
ACGATGAC	-0.0904
AACCGATG	0.193
AGAAGCTC	-0.0716

Sequence	PBM E-score
CATAAGAG	-0.0417
AACGGTGG	-0.033
AGAGAGGG	-0.205
CATGCAGC	-0.164
GGAGTGCC	0.102
AAAGCTGC	-0.0753
ACCGGGCA	0.288
ATGCCTCG	0.0155
TAGGTGGA	-0.326
CCATATAG	-0.144
GGATCATA	0.0799
AAATATAC	0.0145
CGACCAAA	0.0382
CGTATGGA	0.1
AACTAGTT	-0.15
GTTCTCCA	-0.0693
ACTCGTAC	-0.00354
GGCTAACA	0.0243
ATACCGAC	0.0107
CCAACTGG	-0.22
ATTAACTA	-0.0777
ATATACCA	-0.185
ATTAATGG	0.137
GCTGAGTA	-0.104
CTAAAAGA	-0.173

Sequence	PBM E-score
AATAACGC	0.0403
TATATTGA	0.0255
ACAACATC	-0.0307
ATCCGATC	0.326
GCTTATCA	-0.0723
AGTCTATC	-0.204
CCCTTAAG	0.13
GGTGAACC	0.055
CTCGTGGC	-0.0819
CCCCGATA	0.44
CCTAAGTA	-0.0982
AACGGCCT	0.074
CCGGTGTA	0.355
AGTTAGAA	0.0832
CACACTTA	-0.072
GCAACGTA	-0.306
GAGGAGTA	-0.0244
AGTGGCTG	0.139
AGGCCTGA	-0.188
ATCGAATG	-0.076
CTATGTAA	-0.19
CGATCCAA	-0.0472
AGCACTAT	-0.257
ATGTTGTA	-0.147
AGCTGCTG	-0.123

Sequence	PBM E-score
CCGTCAGA	-0.0467
CCGCCGGC	0.373
CTTTCCCC	0.148
ACTGAAAC	0.0255
ACACAAAA	-0.142
CGTCTATA	-0.144
ACAGTAGT	-0.192
GCGTAGAA	0.0917
CACGACCC	-0.0457
ACTGTGTG	0.0083
AACCTAGT	0.0258
ATTTTTAC	-0.182
CTAAACGA	-0.00032
CTTCTCGA	-0.232
GGAAAGGA	0.225
AAGTGTGT	-0.26
GACCTAAC	0.08
AACGCCGG	0.397
ATGCCCAA	-0.101
ACGCGATC	0.0777
AGTCTGAT	-0.241
CGAGGACA	0.126
GAGACACC	0.106
GCCGATGA	0.373
GGCTTCAC	0.0174

Sequence	PBM E-score
CATATAGA	-0.101
ATCTGGTG	-0.136
ACGAAAGC	-0.0708
ATGAACCG	0.162
CCCCGAAA	0.348
ACCTTAAG	0.00463
AATCGTCG	0.122
TAATCACA	-0.201
ACCGGTGG	0.209
CCACAGAC	-0.313
GGACTCAC	0.0658
CGACCCCC	-0.0393
GAGGTCAC	0.0181
CCGTCGAC	0.0572
GCTGATAC	-0.111
CCCCAGGA	-0.26
AATGACCG	0.331
AATGCGCG	0.277
GTGGTAGA	-0.121
CTCGCGCA	0.148
ACACGCCT	-0.258
ATCTGCTA	-0.213
ACGTTGAC	-0.116
CAAGGCGG	-0.17
AGAAGCTA	0.0834

Sequence	PBM E-score
ATACCCAA	-0.046
AATGGCAC	-0.0745
GTCCCCAA	-0.0556
GCAGGTAA	0.0582
TATCAAGA	-0.228
AACGCTTG	-0.0274
ACCTGATC	-0.109
AAACCCTC	0.0772
TGTATAAA	-0.264
ACAGAACC	-0.201
TACTATAA	-0.131
CAGCAACC	-0.206
AACGATGA	-0.0573
ACCCATAT	-0.235
GTTTACGA	-0.236
ACTCGGAG	0.305
CAGGCGCG	-0.124
CCGCTCCG	0.327
CGAGAGCG	0.13
ACATTTAA	-0.0555
ATGTACGC	-0.161
GCCCGCAC	0.142
ACGATATG	0.0819
GCACGGTA	-0.0221
CTGACTCC	-0.0262

Sequence	PBM E-score
CTCTTAAC	-0.0311
ACGAGAAC	-0.0617
GCACTTCC	-0.0201
ATTCCCAC	-0.163
AATGAGGC	-0.127
GCAATCAC	0.204
TAGGCAAA	-0.184
AAAGGCGG	0.0401
AATAGGTC	-0.00292
ACCGATTA	0.335
GAACAGGC	-0.103
CCTCCGAA	0.334
AATAGCGA	0.0245
GCCCGGAC	0.401
AAACCACT	-0.163
CTGATTGA	-0.212
ACTCGCTA	0.12
AATACCTG	-0.103
ATTGCACA	-0.243
CGCACGAC	0.065
CGGGGAGC	0.255
GAGAAGTA	-0.0211
CGTCACAG	-0.122
AGTGTGAT	-0.321
ACGCACAC	0.0161

Sequence	PBM E-score
ATAAGCGA	0.21
AATGAGAA	-0.0939
CCTGTACC	-0.0649
CCGACAAC	0.254
ACCCACCT	-0.133
AGTCGAAT	-0.0799
AGGTGGGC	-0.146
AACCGTTC	0.193
CCTGTCAC	-0.178
TATAACAA	-0.028
ATTTCGTC	0.0285
CCCGAGGG	0.298
GTGAAGTA	-0.065
ACTGATCG	-0.15
GCCTGGGA	-0.0736
AAACTACA	0.0695
CATCGAAC	-0.0236
ACGGCAGA	0.108
ATCATGTG	-0.197
AACTTAGT	-0.0304
ATAATGCG	0.0367
GGCTCCCC	0.064
CGGGATAC	0.174
AGTTCCTA	-0.091
CTCCCAGA	-0.279

Sequence	PBM E-score
GCCATGGC	-0.107
ACAGAAGC	-0.147
AGCACCCA	0.00868
GAGGGGGA	-0.204
ATACGAAC	-0.0356
ATTTGATA	-0.103
AGCATACT	-0.138
AGATCTAG	-0.19
CCATACTA	-0.0774
CTCGTACC	-0.0597
ACGTAAGG	-0.225
GCCTCGAC	-0.316
ATACACCA	-0.0557
ACAACCTG	-0.247
ATAGATAT	-0.013
AGTGTCGC	-0.0563
AGTGGGAG	-0.0995
ATTTTCCC	0.123
CGACTAAG	-0.00674
GGCACACC	-0.0137
GTATTTAA	1e-05
TCTACGAA	-0.279
TCTGCAGA	-0.171
AGGGCCGA	0.343
CGGTAGCA	0.109

Sequence	PBM E-score
ACGCGGCA	-0.0566
CAGGATGC	-0.0599
AGCTGTGC	-0.224
AAGCATGC	-0.365
GAAAAGAA	-0.0671
ACTGAACA	-0.147
GAGGATAA	-0.0202
TACACATA	-0.167
AGGTAGCG	-0.0252
AGGGCTGA	-0.214
AGCAAGAG	-0.35
GCATATGC	-0.163
ACGCCGGC	0.405
AAGTAAAT	0.0671
CTGCTTTC	-0.0859
ATGGACAC	-0.142
AGAATGTA	-0.114
CCCGAACA	0.24
GGTTGCAA	-0.0933
